Assay results from paper PMC4336329 (PLoS ONE, 2015).
About 14,000 (4.5%) of roughly 310,000 compounds showed an effect of 50% or more. The effect is printed as a negative number. Some of the results follow.

Each compound was assayed against human ether-à-go-go-related gene (hERG) potassium channel (human, UniProt Q12809) (assay: primary screen, population patch clamp on CHO cells stably expressing hERG).
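Note: peak tail current of the secondary pulse compared with the same well before compound.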

human ether-à-go-go-related gene (hERG) potassium channel, sequence (Q12809 whole entry, looked up): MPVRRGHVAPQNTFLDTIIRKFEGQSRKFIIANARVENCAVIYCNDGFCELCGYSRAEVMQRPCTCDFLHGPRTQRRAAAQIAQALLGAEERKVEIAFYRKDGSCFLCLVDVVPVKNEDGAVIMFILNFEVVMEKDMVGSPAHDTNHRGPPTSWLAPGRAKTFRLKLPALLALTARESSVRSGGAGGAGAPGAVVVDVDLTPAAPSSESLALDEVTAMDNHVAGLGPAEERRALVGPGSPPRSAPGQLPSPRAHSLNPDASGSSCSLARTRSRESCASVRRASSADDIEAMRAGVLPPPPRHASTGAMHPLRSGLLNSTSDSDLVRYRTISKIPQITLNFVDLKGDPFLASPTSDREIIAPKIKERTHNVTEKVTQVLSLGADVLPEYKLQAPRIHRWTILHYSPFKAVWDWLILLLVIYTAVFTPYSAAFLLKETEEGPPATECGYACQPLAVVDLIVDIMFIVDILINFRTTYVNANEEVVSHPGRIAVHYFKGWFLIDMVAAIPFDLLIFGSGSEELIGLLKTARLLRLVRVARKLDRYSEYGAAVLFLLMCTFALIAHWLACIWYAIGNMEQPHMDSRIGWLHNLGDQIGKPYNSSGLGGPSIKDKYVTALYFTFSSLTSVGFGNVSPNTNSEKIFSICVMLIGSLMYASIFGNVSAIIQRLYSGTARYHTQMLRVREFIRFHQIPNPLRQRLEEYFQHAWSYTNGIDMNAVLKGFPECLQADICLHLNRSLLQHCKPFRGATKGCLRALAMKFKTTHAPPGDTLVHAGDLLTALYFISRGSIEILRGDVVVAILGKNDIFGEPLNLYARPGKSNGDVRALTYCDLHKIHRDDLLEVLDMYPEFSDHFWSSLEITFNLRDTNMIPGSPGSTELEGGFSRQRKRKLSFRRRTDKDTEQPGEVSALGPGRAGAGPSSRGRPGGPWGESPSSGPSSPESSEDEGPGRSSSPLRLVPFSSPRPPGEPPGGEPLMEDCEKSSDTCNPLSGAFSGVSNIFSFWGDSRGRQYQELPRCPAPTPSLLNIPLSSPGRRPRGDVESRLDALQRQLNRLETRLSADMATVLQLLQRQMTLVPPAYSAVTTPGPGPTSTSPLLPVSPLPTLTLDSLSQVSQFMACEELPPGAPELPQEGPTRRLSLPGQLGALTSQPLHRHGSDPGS

| Structure (SMILES) | hERG current change (%, negative = inhibition) at 10uM [%] |
| --- | --- |
| COc1cc(C(=O)NCC(=O)OCC(=O)N2CCc3ccccc32)cc(OC)c1OC | 3.43 |
| Cc1nn(-c2ccccc2)c(N)c1-c1ccccc1 | 5.13 |
| CC(=O)c1ccc(N(CC(=O)NC2CCCCC2)C(=O)c2csnn2)cc1 | -8.91 |
| Cc1ccc(Nc2nc(C(=O)N3CCC(C(=O)NCCN4CCOCC4)CC3)cs2)cc1 | 12.3 |
| OCc1nc2ccccc2n1Cc1ccc(Cl)cc1 | 8.87 |
| O=C(COC(=O)c1cnccn1)c1ccc(Cl)cc1 | 24.4 |
| N#Cc1cc(Oc2ccccc2)c(-n2nnc3ccccc32)cc1C#N | 4.79 |
| COCCn1c(SCC(=O)Nc2ccc3c(c2)CCC3)nc2ccccc2c1=O | 4.46 |
| CCOc1ccc(CC(C(N)=O)C(N)=O)cc1 | 21.3 |
| CN(C)c1ccc(/C=N/NC(=O)c2nnn(-c3nonc3N)c2CN2CCCCCC2)cc1 | 1.78 |
| Cc1ccc(N=C2NC(=O)CC(C(=O)Nc3ccc4c(c3)OCO4)S2)cc1 (stereo not drawn) | 26.7 |
| COc1ccc(NC(=O)CN(C)C(C)C(=O)NC(=O)NC2CCCCC2)cc1 (stereo not drawn) | -3.11 |
| CC(C)OCCCNc1ncnc2c1[nH]c1ccc(F)cc12 | -2.39 |
| COc1cc(NC(=O)c2cccs2)ccc1NC(=O)c1ccco1 | 7.66 |
| CCOC(=O)C1=C(N)N2C(=O)C(C)SC2=C(C(=O)OCC)C1c1ccccc1 (stereo not drawn) | 13.3 |
| O=C(c1ccc(Br)o1)N1CCN(c2ccc3nnc(-c4ccccc4)n3n2)CC1 | -79.1 |
| CCC(=O)Nn1cnc2c(c1=O)C1(CCCCC1)Cc1ccccc1-2 | 2.51 |
| COc1ccccc1C(=O)NCCc1nc2ccccc2[nH]1 | 6.65 |
| Cc1ccnc2c(N3C(=O)C4C5C=CC(C5)C4(C)C3=O)cccc12 (stereo not drawn) | -2.98 |
| COc1cccc(N2CCN(C(=O)c3ccc(CS(=O)Cc4ccc(C)cc4)o3)CC2)c1 (stereo not drawn) | -11.4 |
| CCOc1cc(CNCCc2cccc(F)c2)ccc1OC.O=C(O)C(=O)O | -43.8 |
| COC(=O)c1ccccc1NC(=O)CSc1n[nH]c(-c2ccco2)n1 | 17.2 |
| CCOCCCNC(=O)c1cc(Nc2ccc(OC)cc2OC)nc2ccccc12 | -7.58 |
| CC(NC(=O)[C@H](NC(=O)[C@@H]1Cc2ccccc2CN1)c1ccccc1)c1ccccc1 (stereo partly drawn) | -32.9 |
| CCOC(=O)c1cnc2nc(NCc3ccc(OC)c(OC)c3)[nH]n2c1=O | 7.84 |
| COc1ccccc1NC(=O)C1=C(C)NC(SCC(=O)Nc2ccc(C(=O)O)cc2)=C(C#N)C1c1cccs1 (stereo not drawn) | 20.7 |
| Clc1ccc(-c2nnc3n2-c2ccccc2SC3)cc1 | -36.7 |

| Structure (SMILES) | hERG current change (%, negative = inhibition) at 10uM [%] |
| --- | --- |
| Cc1cc(C)n(-c2ccc(C(=O)Nc3ccc(C)c(S(=O)(=O)N4CCOCC4)c3)cc2)n1 | -20.1 |
| COc1ccc(NC(=O)c2ccc(-c3ccccc3Cl)o2)cc1 | 5.05 |
| CC(=O)c1cccc(NC(=O)NC(C)c2ccncc2)c1 (stereo not drawn) | 0.761 |
| C=C1CCC[C@]2(C)C[C@H]3OC(=O)C(CNCC(C)C)[C@H]3CC12 (stereo partly drawn) | -6.83 |
| N#Cc1cnc(Nc2nc3ccccc3o2)nc1-c1ccccc1 | -5.74 |
| COc1cccc(CNC(=O)CCC(=O)N2C[C@H]3C[C@H](C2)c2cccc(=O)n2C3)c1OC | 8.62 |
| Cc1oc(-c2ccccc2Cl)nc1CN(Cc1ccccn1)C[C@@H]1CCC(=O)N1 | -9.99 |
| COc1ccc(NC(=O)C2CC(c3cc(OC)c(OC)c(OC)c3)=NO2)cc1OC (stereo not drawn) | -8.52 |
| CCn1c(N)nc2c1c(=O)n(C)c(=O)n2C | 10.7 |
| CSc1nsc(SC)c1C(=O)OCC(F)(F)F | 12.1 |
| O=C(O)C1CC=CCC1C(=O)Nc1ccccc1C(=O)N1CCN(c2ccc(Cl)cc2)CC1 (stereo not drawn) | 4.97 |
| Cc1ccc(S(=O)(=O)/N=C(\N)Nc2nc(C)c3cc(C)ccc3n2)cc1 | -6.12 |
| COc1ccc(Oc2c(C(F)(F)F)oc3cc(OCC(=O)O)ccc3c2=O)cc1 | 22 |
| CN(Cc1ccccc1)C(=O)COC(=O)CCN1C(=O)C2CC=CCC2C1=O (stereo not drawn) | -6.13 |
| O=C(O)c1ccccc1C(=O)NCCc1c(C(=O)O)[nH]c2ccc(F)cc12 | 10.2 |
| COc1ccc(CCNC(=O)c2cc(S(=O)(=O)N3CCOCC3)ccc2N2CCCC2)cc1OC | -2.29 |
| CCCOc1ccc(NC(=O)C2OC3OC(C)(C)OC3C3OC(C)(C)OC23)cc1 (stereo not drawn) | 14.9 |
| CC1Cc2ccccc2N1C(=O)C1CCCN1S(=O)(=O)c1ccc(Cl)cc1 (stereo not drawn) | 3.04 |
| CCOC(=O)c1cnc(SCc2cccc(C)c2)nc1N | -21.5 |
| O=C(c1ccc(F)cc1F)N1CCC(N2CCC(C(=O)N3CCOCC3)CC2)CC1 | 13.2 |
| Cc1ccc(N(Cc2cc3ccc(C)cc3[nH]c2=O)S(=O)(=O)c2ccccc2)cc1 | 7.5 |
| CCOP(=S)(OCC)Oc1cc(C)oc(=O)c1 | 10.9 |
| O=C(NCC1CCCO1)c1ccc2c(c1)C(=O)N(C1CCCCC1)C2=O (stereo not drawn) | -21.2 |
| O=C(O)c1ccc(N/N=C/c2ccnc3ccccc23)cc1 | 18.5 |
| CN(C)c1ccc(C(=O)NCc2ccc3c(c2)CCO3)cc1 | -4.82 |
| CCOc1ccc(-c2c(C(=O)N/N=C/c3ccc(OC)cc3)nnn2-c2nonc2N)cc1 | -3.47 |
| CCOC(=O)C1CCN(C(=O)CNC(=O)c2nn(-c3ccc(OC)c(OC)c3)c(=O)c3ccccc23)CC1 | -2.02 |
